# Laboratory results from PubChem BioAssay AID504706 (National Center for Advancing Translational Sciences (NCATS), 2011).
# Among all 320,000 compounds or so, about 200 (0.062%) were called active. The shares of active, inactive and inconclusive entries below differ from those in the screen. Calls follow the shape of the dose curve; as a rule, active = well fitted activation curve with a large enough effect; inconclusive = small, poorly fitted or top-dose-only effect; inactive = no such curve, though single readings can be large or run the other way. No potency is given beside an inconclusive call; the fits are too rough.
# Experiment: qHTS assay for re-activators of p53 using a Luc reporter; also: nearly all actives have a fitted effect of over 45% in size; as to activity change, positive = activation: % of control where 0% means no effect
# Settings: H1299 p53-A138V BP100-luciferase reporter, luminescence, 24 h; series mostly up to 92.2 µM; activity change, positive = activation: at the top concentration
# Outline: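 p53-null H1299 cells stably carrying temperature-sensitive p53-A138V and a BP100-luciferase reporter were pinned with compounds (4-point, 1:5 series) and held 24 hrs at 37 deg C. Luminescence was read 10 min after detection reagent.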
# Potency is read from the fitted curve at half-maximal effect; tags tell the direction and shape of the fitted curve.
Structure (SMILES),"activity change, positive = activation",Potency
COc1ccc(C)cc1NC(=O)NC1CCCCCCC1,inactive: 0.679%,
Cc1onc(-c2ccccc2)c1C(=O)N/N=C/C(Br)=C/c1ccccc1,inactive: 0.587%,
Cc1ccc2c(c1)N=C(c1ccc(Cl)cc1)CO2,,"inconclusive [activator, partial curve, poor fit]"
O=C(Nc1ccc(S(=O)(=O)NC2=NCCCCC2)cc1)c1ccc([N+](=O)[O-])s1,inactive: -13.7%,
CCOc1cc(/C=C2\SC(=N)N(c3nccs3)C2=O)ccc1OCCN1CCOCC1,inactive: -4.65%,
CCCCC(=O)NNC(=S)NC(=O)c1cccc([N+](=O)[O-])c1,inactive: 7.83%,
Cc1ccc(SCC(=O)Nc2ccc3c(c2)C(=O)N(C)C3=O)cc1,inactive: 5.46%,
O=C(Nc1sc(-c2ccccc2)cc1C(=O)O)c1ccccc1,,"inconclusive [activator, full curve, poor fit]"
COc1ccccc1Sc1nc(-c2ccccc2)ncc1OC,inactive: 1.36%,
COc1cc(CNn2cn[nH]c2=S)cc(Cl)c1OCc1ccccc1,inactive: -0.461%,
CCOC(=O)c1ccccc1NS(=O)(=O)c1ccccc1,inactive: 0.999%,
CCN1CCN(c2ncnc3c2cnn3-c2ccccc2)CC1,,"inconclusive [activator, partial curve, poor fit]"
CC(C)(C)Cc1nnc(NC(=O)c2ccc3c(c2)OCO3)s1,,"inconclusive [activator, partial curve, poor fit]"
COc1ccc(-c2ncncc2-c2csc(C)n2)c(O)c1OC,inactive: -1.99%,
Cn1ccnc1SCCNC(=O)CCc1nnc(CCc2ccccc2)o1,inactive: 4.97%,
COc1ccc(-c2cc(C(=O)Nc3cccc(Cl)c3)no2)cc1,,"inconclusive [activator, full curve, poor fit]"
O=C(NC1CCCCC1)N1CCC(c2nc3ccc(Cl)cc3[nH]2)CC1,,"inconclusive [activator, full curve, poor fit]"
COCCN1Cc2c(sc(C)c2C)N(C(=O)c2ccccc2)C1,,"inconclusive [activator, single point]"
COCCNC(=O)C(=O)Nc1cccc(Br)c1,inactive: 9.83%,
Cc1ccc(Cn2cc(/C=N/Nc3ccc([N+](=O)[O-])cn3)c3ccccc32)cc1,,"inconclusive [activator, partial curve, poor fit]"
COc1ccc(C(=O)Nc2nc3ccccc3s2)cc1,inactive: -14.2%,
CCOC(=O)CSc1nc2sc3c(c2c(=O)[nH]1)CC(C)(CC)OC3 (centres undefined),,"inconclusive [activator, single point]"
Nc1cc(-c2ccccc2)nn1Cc1ccc(Cl)cc1,,"inconclusive [activator, full curve, poor fit]"
COc1ccc(C2CC(c3cccs3)=Nc3ccccc3S2)cc1 (centres undefined),,"inconclusive [activator, partial curve, poor fit]"
Cc1occc1C(=O)Nc1sc2c(c1C(N)=O)CCCCC2,,"inconclusive [activator, partial curve, poor fit]"

Structure (SMILES),"activity change, positive = activation",Potency
Cc1cccc(NC(=O)C2COc3ccccc3O2)c1 (centres undefined),,"inconclusive [activator, partial curve, poor fit]"
COc1ccc(C2/C(=C(/O)c3ccc(C)cc3)C(=O)C(=O)N2CCCN2CCOCC2)cc1 (centres undefined),,"inconclusive [activator, partial curve, poor fit]"
O=[N+]([O-])c1ccc(Oc2ccc(-c3cnc4ccccc4n3)cc2[N+](=O)[O-])cc1,,"inconclusive [activator, full curve, poor fit]"
CCOC(=O)c1cnn(-c2ncnc3sc4c(c23)CCC4)c1N,,"inconclusive [activator, single point]"
COCCCN(CCCN)Cc1ccco1,,"inconclusive [activator, partial curve, poor fit]"
CC(=O)c1c(N2CCOCC2)[nH]c(-c2ccccc2)nc1=S,,"inconclusive [activator, single point]"
CC(=O)Nc1cccc(NC(=O)CSc2nc3c(c(=O)n(C)c(=O)n3C)n2C)c1,inactive: 6.27%,
CC(NC(=S)NCc1ccccc1)C12CC3CC(CC(C3)C1)C2 (centres undefined),,"inconclusive [activator, partial curve, poor fit]"
O=C(Nc1ccc2c(c1)OCO2)C1Cc2ccccc2CN1S(=O)(=O)c1cccs1 (centres undefined),,"inconclusive [activator, partial curve, poor fit]"
CCOC(=O)c1ccccc1NC(=O)COc1ccccc1,,"inconclusive [activator, single point]"
N/C(Cc1ccc([N+](=O)[O-])cc1)=N\OC(=O)c1ccco1,inactive: 10.3%,
COc1ccc(C(=O)NC2=Nc3ccccc3N=C(C)C2c2ccccc2)cc1 (centres undefined),,"inconclusive [activator, partial curve, poor fit]"
N#Cc1c(NC(=O)CSc2ncn[nH]2)sc2c1CCCCC2,inactive: -42.9%,
c1ccc(CCCNc2ncnc3nc[nH]c23)cc1,,"inconclusive [activator, full curve, poor fit]"
CCCCCCC[C@@H](C/C=C/CCC(=O)N(C)C/C(=C/Cl)C/C(=C\C(=O)N1CC(OC)=CC1=O)OC)OC,,active: 31.6 µM
O=C(c1nsnc1-c1ccccc1O)N1CCCCC1,inactive: -0.605%,
CCOC(=O)N1CCN(CC(O)COC2CC(C)CC(C)(C)C2)CC1 (centres undefined),,"inconclusive [activator, partial curve, poor fit]"
Cc1ccc(-c2nc(-c3ccncc3)no2)c(Cl)c1,,"inconclusive [activator, partial curve, poor fit]"
CSc1nc(SCC(=O)NCc2ccco2)c2c3c(sc2n1)COC(C)(C)C3,inactive: 5.87%,
COc1cccc(C(=O)NC2CCN(CC(=O)Nc3c(C)cc(C)cc3C)CC2)c1,inactive: -3.96%,
O=C1c2ccccc2CN1c1ccccc1,inactive: 8.16%,
CCOC(=O)c1cc2c(nc1NC(=S)NCc1ccccc1)CCCC2,,"inconclusive [activator, full curve, poor fit]"
O=C(COC(=O)c1cccs1)NC1CCCCC1,,"inconclusive [activator, partial curve, poor fit]"
CC(C)(C)Cc1nnc(NC(=O)c2ccc([N+](=O)[O-])cc2)s1,,"inconclusive [activator, partial curve, poor fit]"
COc1ccc(NC(=O)O/N=C/c2ccccc2Cl)cc1,inactive: 16%,

Structure (SMILES),"activity change, positive = activation",Potency
COc1ccc(C(=O)NC(=S)Nc2ccc(Cl)c(C(=O)O)c2)cc1,,"inconclusive [activator, single point]"
CC(=O)N=c1sc2cc(C)ccc2n1C,,"inconclusive [activator, single point]"
CCCCC(=O)NC(=S)Nc1cccc(Cl)c1N1CCCCC1,,"inconclusive [activator, single point]"
Cc1nc(N2CCN(S(=O)(=O)c3cccc4nonc34)CC2)c2c3c(sc2n1)CCCC3,inactive: -1.11%,
CN(C)c1ccc(/C=N/N(CCC(=O)NC(C)(C)C)C2=NS(=O)(=O)c3ccccc32)cc1,inactive: -0.16%,
CC(OC(=O)c1ccc2c(c1)OCCO2)C(=O)c1ccccc1 (centres undefined),,"inconclusive [activator, partial curve, poor fit]"
CCCn1c(N)c(C(=O)CSc2nc3ccccc3s2)c(=O)[nH]c1=O,inactive: 9.49%,
COc1ccc(Nc2nnc(SCC(=O)N3CCCC3)s2)cc1,inactive: -3.04%,
Cc1ccc2nc(-c3ccc(O)cc3)c(Nc3ccc4c(c3)OCCO4)n2c1,,"inconclusive [activator, full curve, poor fit]"
Cc1c(C(=O)Nc2nnc(C3CC3)s2)oc2ccccc12,,active: 5.01 µM
Cc1nn(-c2ccccn2)c(C)c1Oc1ccccc1O,,"inconclusive [activator, full curve, poor fit]"
Cc1nc2ccc(NC(=O)c3cccs3)cc2s1,,"inconclusive [activator, single point]"
CC(Cc1cccs1)NC(=O)NC1CCCCC1 (centres undefined),,"inconclusive [activator, full curve, poor fit]"
COc1ccc(-c2csc(NC(=O)CSc3nnnn3C)n2)c(OC)c1,inactive: 4.74%,
Cc1ccc(NC(=O)CNC(=O)c2cccc(C)c2)nc1,inactive: 11%,
O=C(OCC(=O)C12CC3CC(CC(C3)C1)C2)c1ccc(O)cc1O,,"inconclusive [activator, partial curve, poor fit]"
COCC(=O)Nc1nc(-c2ccc([N+](=O)[O-])cc2)cs1,inactive: 3.4%,
CCCCC(=O)/C=C/n1c(=S)oc2ccccc21,,"inconclusive [activator, partial curve, poor fit]"
CC(C)(C)c1ccc(C(=O)N/N=C2\C3CN4CCN(C3)CC2(c2ccccc2)C4)cc1,inactive: -0.519%,
Cc1ccc(N(CC(=O)Nc2ccc(-c3nc4ccc(C)cc4s3)cc2)S(C)(=O)=O)cc1,,"inconclusive [activator, partial curve, poor fit]"
CCc1ccc(NC(=O)NC2CCCCCCC2)cc1,,"inconclusive [activator, partial curve, poor fit]"
Cc1ccc(OCCSc2nc(NC(C)C)nc(NC(C)C)n2)cc1,inactive: -2.4%,
O=C(Nc1cccc(S(=O)(=O)N2CCCC2)c1)c1ccc2ccccc2n1,inactive: -4.13%,
Cc1ccc(S(=O)(=O)/N=C2/C=C(C3C(=O)CC(C)(C)CC3=O)C(=O)c3ccccc32)cc1,,"inconclusive [activator, partial curve, poor fit]"
